{
  "source": "patent US20150010589A1",
  "about": "(published 2015)",
  "target": "von Willebrand factor (vWf factor VIII-free, Haematologic Technologies Inc) (Homo sapiens (Human), UniProt P04275 764-2813, Plasma-derived glycoprotein, a disulfide-linked multimer of this subunit. The letters cannot carry the glycans or the inter-chain disulfides.)",
  "experiment": "SPR",
  "data": [
    {"binder": "recombinant Aegyptin (mature protein with C-terminal 6xHis tag, expressed in 293-F cells) (other) RPMPEDEEPVAEGGDDDASGESEGEEETTDDAGGDGGEEENEGEEHAGDKDAGGEDTGKEENTGHDDAGEEDAGEEDAGEEDAGEEDAGEEDAEKEEGEKEDAGDDAGSDDGEEDSTGGDEGEDNAEDSKGSEKNDPADTYRQVVALLDKDTKVDHIQSEYLRSALNNDLQSEVRVPVVEAIGRIGDYSKIQGCFKSMGKDVKKVISEEEKKFKSCMSKKKSEYQCSEDSFAAAKSKLSPITSKIKSCVSSKGRHHHHHH", "values": [
      {"measurement": "binding result", "value": "no binding"}
    ]}
  ]
}
